# In the supplement of paper PMC10338343:
# ± gives the standard deviation. Only a part is listed here, and it is no random draw.
# Test system: MIWI (PIWIL1) piRISC loaded with L1MC piRNA (30 nt)
# Experiment: pre-steady-state target cleavage rate (min^-1); MIWI and MILI are mouse PIWI proteins and EfPiwi is from a freshwater sponge; tags in brackets are library labels; higher = faster piRNA-guided slicing of the target
# Details: guide: L1MC piRNA 5'p-UAACUAAAUACUAUGCAAGCUGUAGGUCCU
# Summary of the method: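 Using HEPES–potassium acetate buffer at 33 °C, 1 nM active affinity-purified piRISC with a single synthetic guide was mixed with 0.1 nM transcribed, DNA-blocked target RNA library for 0–8 or 0–960 min, with or without 500 nM GTSF1 partner protein. Uncleaved targets were sequenced and normalised to depth and to weakly complementary targets, and three trials were pooled with k3 capped at 0.0001 min^-1. A burst-and-steady-state fit gave the pre-steady-state cleavage rate.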
# [1] = auxiliary factor: 500 nM mouse GTSF1
# [2] = auxiliary factor: none (no GTSF1)
Sequence,pre-steady-state target cleavage rate [1],pre-steady-state target cleavage rate [2]
UCCUGGAUGUCGAACGUAUGUAAUUUAGUUA,< 0.0001,< 0.0001
UCGACCUAGAGCUUCCAUAGUAUUUAGUUA,0.0771 ± 0.023,0.00291 ± 0.002
UCCUGGAUCAGCAUGCAUUGUAUUUAGUUA,0.254 ± 0.028,0.00772 ± 0.0032
UCCUGGAGCAGCUUGCAUAGUAUUUAGUUA,1.13 ± 0.044,0.0692 ± 0.013
UGGACCUACACGUUGCAUAGUAUUUAGUUA,1.09 ± 0.061,0.0236 ± 0.0048
UCCUCCUACACCUUGCAUAGUAUUUAGAAA,0.602 ± 0.095,0.00482 ± 0.0022
UGGACCUACAGCUUGGAUAGUAUUUUGUUA,0.796 ± 0.065,0.0317 ± 0.0053
UCCACCUACUGCUUGCAUAGUUUUUAGUUA,0.236 ± 0.02,0.0184 ± 0.0025
UGGACGAUCAGCUUGCAUAGUAUUUAGUAA,0.953 ± 0.064,0.0656 ± 0.013
UCCUGCUACAGCUUGCAUAGAAUUAAGUUA,0.197 ± 0.026,0.00859 ± 0.0031
UCGACCUACAGCAUGCAUACUAUUUAGUUA,0.421 ± 0.021,0.0197 ± 0.0036
UCCUGGAACAGCUUGCAUAGUAUGUAGUUA,0.38 ± 0.047,0.0217 ± 0.004
UCCUGCUACAGCUUGCAUAGUAUUAUAGUUA,0.57 ± 0.042,0.0153 ± 0.0033
UCGACCUACAGCUUGCUUAGUAAUUAGUUA,0.872 ± 0.046,0.00981 ± 0.0032
UCGACCUAGAGCUUGCAUAGUAUUUAGAUA,0.46 ± 0.051,0.0214 ± 0.0059
UGGACCUACAGCUUGCAUAGAAUUUAGAUA,0.173 ± 0.028,0.0108 ± 0.003
UCCACCUACACCUUGCAUAGUAUUUAGUAA,0.497 ± 0.062,0.0267 ± 0.0063

Sequence,pre-steady-state target cleavage rate [1],pre-steady-state target cleavage rate [2]
UCCUGGAUCAGCUUGCAUUGUAUUUACUUA,0.261 ± 0.036,0.0114 ± 0.0038
UCCUGGAUGAGCUUGCAUAGUAUUUAGUCUA,0.0551 ± 0.014,0.0123 ± 0.0039
UCCUGGUACAGGUUGCAUAGUAUUUUGUUA,0.665 ± 0.12,0.0157 ± 0.0042
AGGACCUACACCUUGCAUAGUAUUUUGUUA,0.768 ± 0.077,0.0627 ± 0.011
UCCUCCUACACGCUUGCAUAGUAUUUAGUUA,0.934 ± 0.037,0.0382 ± 0.0074
UCCUCCUACAGCUUGGAUAGUAUUUAGAAA,0.203 ± 0.031,0.00274 ± 0.0023
UCCUGGAUGAGGUUGCAUAGUAUUUAGUAA,0.0901 ± 0.012,0.00316 ± 0.0026
UCCACCUACAGCUUGCAAGUAUUUAGUUA,0.369 ± 0.031,0.00504 ± 0.0024
UCCUCCUACAGCUUGCUUACUAUUUAGUUA,0.531 ± 0.025,0.0111 ± 0.0027
AGGACCUACAGCUUGCACAGUAUUUAGUUA,1.14 ± 0.028,0.0648 ± 0.011
UCGACCUACUGCUUGCAUAGUAUUUACAAA,0.237 ± 0.027,0.00606 ± 0.0017
UCCUGCUACAGCUUGCAUAGUAUUUAGUCA,0.404 ± 0.05,0.0157 ± 0.0035
UCCUGGUACAGGUUGCAUAGUAUUUAGUAA,0.658 ± 0.076,0.0101 ± 0.0027
UCCACCUACAGCUUGCAUAGUUUUUACUUA,0.173 ± 0.03,0.0106 ± 0.0026
UCGACCUACAGCUUCGCAUAGUAUUUAGUUA,1.33 ± 0.07,0.0168 ± 0.004
AGGACCUACUGCUUGCAUAGUAAUUAGUUA,0.749 ± 0.053,0.0336 ± 0.0073
